Here are results for one molecule from the supplement of paper PMC8728848.

The list shows a part of the results.

Test in all cases: glycan array binding signal (z-score within array); higher = stronger binding
What all share (details): glycan notation: IUPAC condensed, linker removed

Test [1] concerns the target Gal(b1-4)GlcNAc(b1-3)Gal(b1-3)GlcNAc. The method, boiled down:
(§1)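 Arrays were curated from the Consortium for Functional Glycomics database, 3228 in total, and kept only where the protein sequence was available. Binding is expressed as a within-array Z-score. This score was averaged across arrays of the same protein sequence at different concentrations or buffers and across linkers, and negative values can be read as non-binding.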

Test [2] has as its target Gal(b1-4)GlcNAc(b1-3)Gal(b1-4)Glc. An outline of the steps:
as §1

The target in test [3] is Gal(b1-4)GlcNAc(b1-3)Gal(b1-4)GlcNAc. An outline of the steps:
as §1

Test [4] deals with Gal(b1-4)GlcNAc(b1-3)Gal(b1-4)GlcNAc(b1-2)Man(a1-3)[Gal(b1-4)GlcNAc(b1-3)Gal(b1-4)GlcNAc(b1-2)Man(a1-6)]Man(b1-4)GlcNAc(b1-4)GlcNAc. The method, boiled down: as §1
Test [5] deals with Gal(b1-4)GlcNAc(b1-3)Gal(b1-4)GlcNAc(b1-2)Man(a1-3)[Gal(b1-4)GlcNAc(b1-3)Gal(b1-4)GlcNAc(b1-2)Man(a1-6)]Man(b1-4)GlcNAc(b1-4)[Fuc(a1-6)]GlcNAc. The method, boiled down:
as §1

The target of test [6] is Gal(b1-4)GlcNAc(b1-3)Gal(b1-4)GlcNAc(b1-2)[Gal(b1-4)GlcNAc(b1-3)Gal(b1-4)GlcNAc(b1-6)]Man(a1-6)[Gal(b1-4)GlcNAc(b1-3)Gal(b1-4)GlcNAc(b1-2)Man(a1-3)]Man(b1-4)GlcNAc(b1-4)GlcNAc. The method, boiled down:
as §1

The target in test [7] is Gal(b1-4)GlcNAc(b1-3)Gal(b1-4)GlcNAc(b1-2)[Gal(b1-4)GlcNAc(b1-3)Gal(b1-4)GlcNAc(b1-6)]Man(a1-6)[Gal(b1-4)GlcNAc(b1-3)Gal(b1-4)GlcNAc(b1-2)Man(a1-3)]Man(b1-4)GlcNAc(b1-4)[Fuc(a1-6)]GlcNAc. An outline of the steps:
as §1

Test [8] addresses Gal(b1-4)GlcNAc(b1-3)Gal(b1-4)GlcNAc(b1-3)Gal(b1-4)GlcNAc. The method, boiled down: as §1
The target in test [9] is Gal(b1-4)GlcNAc(b1-3)Gal(b1-4)GlcNAc(b1-3)Gal(b1-4)GlcNAc(b1-2)Man(a1-3)[Gal(b1-4)GlcNAc(b1-3)Gal(b1-4)GlcNAc(b1-3)Gal(b1-4)GlcNAc(b1-2)Man(a1-6)]Man(b1-4)GlcNAc(b1-4)GlcNAc. An outline of the steps:
as §1

Test [10] concerns the target Gal(b1-4)GlcNAc(b1-3)Gal(b1-4)GlcNAc(b1-3)Gal(b1-4)GlcNAc(b1-2)Man(a1-3)[Gal(b1-4)GlcNAc(b1-3)Gal(b1-4)GlcNAc(b1-3)Gal(b1-4)GlcNAc(b1-2)Man(a1-6)]Man(b1-4)GlcNAc(b1-4)[Fuc(a1-6)]GlcNAc. The method, boiled down: as §1
Test [11] deals with Gal(b1-4)GlcNAc(b1-3)Gal(b1-4)GlcNAc(b1-3)Gal(b1-4)GlcNAc(b1-2)[Gal(b1-4)GlcNAc(b1-3)Gal(b1-4)GlcNAc(b1-3)Gal(b1-4)GlcNAc(b1-6)]Man(a1-6)[Gal(b1-4)GlcNAc(b1-3)Gal(b1-4)GlcNAc(b1-3)Gal(b1-4)GlcNAc(b1-2)Man(a1-3)]Man(b1-4)GlcNAc(b1-4)[Fuc(a1-6)]GlcNAc. The method, boiled down: as §1
The target of test [12] is Gal(b1-4)GlcNAc(b1-3)Gal(b1-4)GlcNAc(b1-3)Gal(b1-4)GlcNAc(b1-3)Gal(b1-4)GlcNAc(b1-2)Man(a1-3)[Gal(b1-4)GlcNAc(b1-3)Gal(b1-4)GlcNAc(b1-3)Gal(b1-4)GlcNAc(b1-3)Gal(b1-4)GlcNAc(b1-2)Man(a1-6)]Man(b1-4)GlcNAc(b1-4)GlcNAc. The method, boiled down:
as §1

The target of test [13] is Gal(b1-4)GlcNAc(b1-3)Gal(b1-4)GlcNAc(b1-3)Gal(b1-4)GlcNAc(b1-3)Gal(b1-4)GlcNAc(b1-2)Man(a1-3)[Gal(b1-4)GlcNAc(b1-3)Gal(b1-4)GlcNAc(b1-3)Gal(b1-4)GlcNAc(b1-3)Gal(b1-4)GlcNAc(b1-2)Man(a1-6)]Man(b1-4)GlcNAc(b1-4)[Fuc(a1-6)]GlcNAc. The method, boiled down:
as §1

For test [14], the target named is Gal(b1-4)GlcNAc(b1-3)Gal(b1-4)GlcNAc(b1-3)Gal(b1-4)GlcNAc(b1-3)Gal(b1-4)GlcNAc(b1-2)[Gal(b1-4)GlcNAc(b1-3)Gal(b1-4)GlcNAc(b1-3)Gal(b1-4)GlcNAc(b1-3)Gal(b1-4)GlcNAc(b1-6)]Man(a1-6)[Gal(b1-4)GlcNAc(b1-3)Gal(b1-4)GlcNAc(b1-3)Gal(b1-4)GlcNAc(b1-3)Gal(b1-4)GlcNAc(b1-2)Man(a1-3)]Man(b1-4)GlcNAc(b1-4)[Fuc(a1-6)]GlcNAc. An outline of the steps: as §1
Test [15] has as its target Gal(b1-4)GlcNAc(b1-3)Gal(b1-4)GlcNAc(b1-3)Gal(b1-4)GlcNAc(b1-3)Gal(b1-4)GlcNAc(b1-3)Gal(b1-4)GlcNAc(b1-2)Man(a1-3)[Gal(b1-4)GlcNAc(b1-3)Gal(b1-4)GlcNAc(b1-3)Gal(b1-4)GlcNAc(b1-3)Gal(b1-4)GlcNAc(b1-3)Gal(b1-4)GlcNAc(b1-2)Man(a1-6)]Man(b1-4)GlcNAc(b1-4)GlcNAc. An outline of the steps: as §1
Test [16] deals with Gal(b1-4)GlcNAc(b1-3)Gal(b1-4)GlcNAc(b1-3)Gal(b1-4)GlcNAc(b1-3)Gal(b1-4)GlcNAc(b1-3)Gal(b1-4)GlcNAc(b1-2)Man(a1-3)[Gal(b1-4)GlcNAc(b1-3)Gal(b1-4)GlcNAc(b1-3)Gal(b1-4)GlcNAc(b1-3)Gal(b1-4)GlcNAc(b1-3)Gal(b1-4)GlcNAc(b1-2)Man(a1-6)]Man(b1-4)GlcNAc(b1-4)[Fuc(a1-6)]GlcNAc. The method, boiled down: as §1
The target in test [17] is Gal(b1-4)GlcNAc(b1-3)Gal(b1-4)GlcNAc(b1-3)Gal(b1-4)GlcNAc(b1-3)Gal(b1-4)GlcNAc(b1-3)Gal(b1-4)GlcNAc(b1-2)[Gal(b1-4)GlcNAc(b1-3)Gal(b1-4)GlcNAc(b1-3)Gal(b1-4)GlcNAc(b1-3)Gal(b1-4)GlcNAc(b1-3)Gal(b1-4)GlcNAc(b1-6)]Man(a1-6)[Gal(b1-4)GlcNAc(b1-3)Gal(b1-4)GlcNAc(b1-3)Gal(b1-4)GlcNAc(b1-3)Gal(b1-4)GlcNAc(b1-3)Gal(b1-4)GlcNAc(b1-2)Man(a1-3)]Man(b1-4)GlcNAc(b1-4)[Fuc(a1-6)]GlcNAc. The method, boiled down: as §1

Test [18] deals with Gal(b1-4)GlcNAc(b1-3)Gal(b1-4)GlcNAc(b1-3)Gal(b1-4)GlcNAc(b1-3)Gal(b1-4)GlcNAc(b1-3)Gal(b1-4)GlcNAc(b1-3)Gal(b1-4)GlcNAc(b1-2)Man(a1-3)[Gal(b1-4)GlcNAc(b1-3)Gal(b1-4)GlcNAc(b1-3)Gal(b1-4)GlcNAc(b1-3)Gal(b1-4)GlcNAc(b1-3)Gal(b1-4)GlcNAc(b1-3)Gal(b1-4)GlcNAc(b1-2)Man(a1-6)]Man(b1-4)GlcNAc(b1-4)GlcNAc. An outline of the steps: as §1
The target in test [19] is Gal(b1-4)GlcNAc(b1-3)Gal(b1-4)GlcNAc(b1-3)GalNAc. An outline of the steps: as §1

B1: Siglec-7-SA-PE-180 (Homo sapiens), Q9Y286 (protein)
chain: MLLLLLLPLLWGRERVEGQKSNRKDYSLTMQSSVTVQEGMCVHVRCSFSYPVDSQTDSDPVHGYWFRAGNDISWKAPVATNNPAWAVQEETRDRFHLLGDPQTKNCTLSIRDARMSDAGRYFFRMEKGNIKWNYKYDQLSVNVTALTHRPNILIPGTLESGCFQNLTCSVPWACEQGTPPMISWMGTSVSPLHPSTTRSSVLTLIPQPQHHGTSLTCQVTLPGAGVTTNRTIQLNVSYPPQNLTVTVFQGEGTASTALGNSSSLSVLEGQSLRLVCAVDSNPPARLSWTWRSLTLYPSQPSNPLVLELQVHLGDEGEFTCRAQNSLGSQHVSLNLSLQQEYTGKMRPVSGVLLGAVGGAGATALVFLSFCVIFIVVRSCRKKSARPAADVGDIGMKDANTIRGSASQGNLTESWADDNPRHHGLAAHSSGEEREIQYAPLSFHKGEPQDLSGQEATNNEYSEIKIPK
Regarding B1, the “glycan array binding signal (z-score)” value in test [1] is -0.293; in test [2] it was -0.525; in test [3], -0.232; in test [4], 0.483; in test [5], 0.346; in test [6], 0.075. Further, the “glycan array binding signal (z-score)” value in [7] was 1.44; in [8], -0.091; in test [9], 0.23; in [10], 0.243; in test [11], 0.678; in [12], 0.618. Besides, the “glycan array binding signal (z-score)” value in test [13] was 0.025; in [14], -0.101; in [15], -0.144; in test [16], -0.311; in test [17], 0.475; in test [18] it was 0.162. In test [19], the “glycan array binding signal (z-score)” value turned out to be 0.259.
